Results: a collection of fitness landscapes (doi:10.1126/science.1257360)
The list shows a part of the results.

B1: PhoQ; a variant is named by its letters at X, in order, P23837 (parent)
chain: MKKLLRLFFPLSLRVRFLLATAAVVLVLSLAYGMVALIGYSVSFDKTTFRLLRGESNLFYTLAKWENNKLHVELPENIDKQSPTMTLIYDENGQLLWAQRDVPWLMKMIQPDWLKSNGFHEIEADVNDTSLLLSGDHSIQQQLQEVREDDDDAEMTHSVAVNVYPATSRMPKLTIVVVDTIPVELKSSYMVWSWFIYVLSANLLLVIPLLWVAAWWSLRPIEALAKEVRELEEHNRELLNPATTRELTSLVRNLNRLLKSERERYDKYRTTLTDLTHSLKTPLXXLQXXLRSLRSEKMSVSDAEPVMLEQISRISQQIGYYLHRASMRGGTLLSRELHPVAPLLDNLTSALNKVYQRKGVNISLDISPEISFVGEQNDFVEVMGNVLDNACKYCLEFVEISARQTDEHLYIVVEDDGPGIPLSKREVIFDRGQRVDTLRPGQGVGLAVAREITEQYEGKIVAGESMLGGARMEVIFGRQHSAPKDE

Variants of: B1
Assay: enrichment ratio after two sorts for PhoP signalling (ratio (wild type AVST 3.29)); higher = more functional
Details: with PhoP (E. coli)

Variant	enrichment ratio
EARF	≤ 0.25
MNGG	≤ 0.25
IQFN	≤ 0.25
EEDV	≤ 0.25
IVST	≤ 0.25
NADW	≤ 0.25
TQQP	≤ 0.25
FCHY	≤ 0.25
HRPQ	≤ 0.25
INKW	≤ 0.25
GEQL	≤ 0.25
YPAW	≤ 0.25
TMSK	≤ 0.25
SIFL	≤ 0.25
SHSD	≤ 0.25
WMKE	≤ 0.25
MSDP	≤ 0.25
IFHQ	≤ 0.25
AGIS	2.92
DTTN	≤ 0.25
NWHG	≤ 0.25
WPLA	≤ 0.25
RSHY	≤ 0.25
LPIA	≤ 0.25

Variant	enrichment ratio
PWPP	≤ 0.25
VLYT	≤ 0.25
ILNY	≤ 0.25
FVNK	≤ 0.25
EESH	≤ 0.25
GLQD	≤ 0.25
TIEV	1.07
KKFL	≤ 0.25
ENYN	≤ 0.25
NVYD	≤ 0.25
TWWA	≤ 0.25
DVRW	≤ 0.25
WDGW	≤ 0.25
YIIY	≤ 0.25
AMER	≤ 0.25
YLPR	≤ 0.25
WSKY	≤ 0.25
VFME	≤ 0.25
REIW	≤ 0.25
YGAK	≤ 0.25
WPMA	≤ 0.25
QRPC	≤ 0.25
HQCY	≤ 0.25
LARG	≤ 0.25

Variant	enrichment ratio
HKYD	≤ 0.25
DLSS	≤ 0.25
EATK	≤ 0.25
LNAL	≤ 0.25
RHLM	≤ 0.25
YGRK	≤ 0.25
MFDE	≤ 0.25
SMKC	≤ 0.25
RYRL	≤ 0.25
GDSC	5.26
TCLP	0.467
WNFT	≤ 0.25
LKPD	≤ 0.25
SMAW	1.9
LRKQ	≤ 0.25
YEYD	≤ 0.25
KYIP	≤ 0.25
HQHM	≤ 0.25
GIWC	≤ 0.25
RRRG	≤ 0.25
WALE	≤ 0.25
PITG	≤ 0.25
VALG	10.2
CFTH	≤ 0.25

Variant	enrichment ratio
LVWK	≤ 0.25
QVAF	1.05
YLTI	0.304
VGFS	≤ 0.25
KDLP	≤ 0.25
TMNS	7.25
HMRS	≤ 0.25
RMNQ	≤ 0.25
VAVN	≤ 0.25
RRLI	≤ 0.25
NNTY	≤ 0.25
YELD	≤ 0.25
FLGQ	≤ 0.25
MEDH	≤ 0.25
EEWL	≤ 0.25
LPDY	≤ 0.25
HLGF	≤ 0.25
HSFF	≤ 0.25
MYMQ	≤ 0.25
MVTH	2.25
MHYH	≤ 0.25
AYWS	≤ 0.25
GACK	≤ 0.25
GILN	10.6

Variant	enrichment ratio
HSSW	≤ 0.25
LGCV	≤ 0.25
VTEK	≤ 0.25
QDCG	≤ 0.25
NQTA	≤ 0.25
HEIA	≤ 0.25
TDTP	1.02
PFCD	≤ 0.25
KRVC	≤ 0.25
NNSS	≤ 0.25
YWHC	≤ 0.25
AYGQ	≤ 0.25
HLTQ	≤ 0.25
RELY	≤ 0.25
DYWG	≤ 0.25
YKGR	≤ 0.25
SEKH	≤ 0.25
LTTL	≤ 0.25
RPAK	≤ 0.25
LLYW	≤ 0.25
VLAC	≤ 0.25
GPYN	≤ 0.25
FQHP	≤ 0.25
QGMR	≤ 0.25

Variant	enrichment ratio
NGQA	≤ 0.25
TEMC	18.9
DLQC	≤ 0.25
YDWT	≤ 0.25
SCLW	0.544
EPHP	≤ 0.25
VPLR	≤ 0.25
LKQP	≤ 0.25
TVNL	2.08
FTNQ	≤ 0.25
VPRK	≤ 0.25
MNCA	≤ 0.25
IEQR	≤ 0.25
MNGA	≤ 0.25
CNFI	≤ 0.25
PEMT	≤ 0.25
GFGF	≤ 0.25
IYRV	≤ 0.25
THPK	≤ 0.25
REHQ	≤ 0.25
LFRN	≤ 0.25
PHNN	≤ 0.25
YLSR	≤ 0.25
IMRR	≤ 0.25

Variant	enrichment ratio
MPTM	≤ 0.25
DKIQ	≤ 0.25
NRGN	≤ 0.25
QNAP	≤ 0.25
LLNK	≤ 0.25
KSWS	≤ 0.25
GQVD	≤ 0.25
EFKV	≤ 0.25
MWLD	≤ 0.25
DWTC	≤ 0.25
KQTA	≤ 0.25
EAQM	≤ 0.25
FQHV	≤ 0.25
GISP	≤ 0.25
DASE	≤ 0.25
HITI	≤ 0.25
TVYQ	3.34
VRTH	≤ 0.25
GSDV	≤ 0.25
NGKY	≤ 0.25
NWCY	≤ 0.25
KFHG	≤ 0.25
NAYM	≤ 0.25
FHHL	≤ 0.25

Variant	enrichment ratio
KVSI	≤ 0.25
YSWW	≤ 0.25
SVYK	≤ 0.25
RAYY	≤ 0.25
KECA	≤ 0.25
NNFM	≤ 0.25
FKSI	≤ 0.25
KFAT	≤ 0.25
PDIC	≤ 0.25
WSYM	≤ 0.25
VVLD	≤ 0.25
TFSY	≤ 0.25
EFEV	≤ 0.25
IMAC	≤ 0.25
KWQA	≤ 0.25
DHLE	≤ 0.25
IELN	1.96
LEIW	≤ 0.25
RTYH	≤ 0.25
IHGV	≤ 0.25
EKED	≤ 0.25
FQGN	≤ 0.25
NQIM	≤ 0.25
IISG	≤ 0.25

Variant	enrichment ratio
NNFH	≤ 0.25
GYKG	≤ 0.25
YIWA	≤ 0.25
KISG	≤ 0.25
LVSW	≤ 0.25
WKNS	≤ 0.25
DIIH	≤ 0.25
LSKR	≤ 0.25
QINM	≤ 0.25
IKWW	≤ 0.25
ANTD	≤ 0.25
ILIS	≤ 0.25
KIHH	≤ 0.25
QAIS	≤ 0.25
AEMA	25.6
IDIC	≤ 0.25
NQSM	≤ 0.25
WMGF	≤ 0.25
TMRF	≤ 0.25
WYAK	≤ 0.25
TSDM	6.42
SCAV	6.67
NCKP	≤ 0.25
VQCP	≤ 0.25

Variant	enrichment ratio
NCIW	≤ 0.25
DDDL	≤ 0.25
LAFN	0.877
WTFW	≤ 0.25
FILN	4.41
KKPL	≤ 0.25
DWRG	≤ 0.25
LYID	≤ 0.25
TCPF	≤ 0.25
VSFV	0.649
AEIK	≤ 0.25
VLAF	≤ 0.25
MRMG	≤ 0.25
NESG	≤ 0.25
NDYC	≤ 0.25
QMIP	≤ 0.25
LHSR	≤ 0.25
EHFN	≤ 0.25
FCAH	≤ 0.25
PFRC	≤ 0.25
SCQC	≤ 0.25
AMCV	5.84
GVHF	≤ 0.25
EGTS	≤ 0.25

Variant	enrichment ratio
HMPY	≤ 0.25
RRRL	≤ 0.25
KYIH	≤ 0.25
RRGC	≤ 0.25
FDLM	≤ 0.25
LQHA	≤ 0.25
MDNT	≤ 0.25
KERR	≤ 0.25
PVAS	≤ 0.25
QPGQ	≤ 0.25
NVPT	≤ 0.25
GGGQ	≤ 0.25
TSHI	9.1
LYLF	≤ 0.25
WGSD	≤ 0.25
DFFE	≤ 0.25
SIMY	3.34
RRWW	≤ 0.25
QVFA	≤ 0.25
LIPF	≤ 0.25
RHTI	≤ 0.25
FMQE	≤ 0.25
CISC	≤ 0.25
KPAH	≤ 0.25

Variant	enrichment ratio
PKVN	≤ 0.25
LERF	≤ 0.25
NWCA	≤ 0.25
KNGG	≤ 0.25
AEPS	≤ 0.25
GLWK	≤ 0.25
APFM	≤ 0.25
CNFH	≤ 0.25
RFLG	≤ 0.25
MEYN	2.87
MATL	7.59
DWWC	≤ 0.25
EGWA	≤ 0.25
YFLP	≤ 0.25
RWGQ	≤ 0.25
DCPY	≤ 0.25
MAAK	≤ 0.25
QHQD	≤ 0.25
GVHR	≤ 0.25
AVRH	≤ 0.25
PYNQ	≤ 0.25
IFHK	≤ 0.25
VWCW	≤ 0.25
MSAI	9.81

Variant	enrichment ratio
SMMG	9.58
QKIP	≤ 0.25
RDRE	≤ 0.25
MNQL	≤ 0.25
WPYD	≤ 0.25
MSKL	≤ 0.25
LNPW	≤ 0.25
YVLK	≤ 0.25
WDAG	≤ 0.25
RCKP	≤ 0.25
ELLT	≤ 0.25
AWMY	≤ 0.25
VYAY	≤ 0.25
PLRQ	1.07
DQRF	≤ 0.25
IKLP	≤ 0.25
NEKF	≤ 0.25
QQAE	≤ 0.25
